In PubChem BioAssay AID1159614 (National Center for Advancing Translational Sciences (NCATS), 2016):
The whole screen tested about 45,000 compounds, of which about 65 (0.1%) were called active. Calls come from the whole dose curve; as a rule, active = well fitted activation curve with a large enough effect; inconclusive = small, poorly fitted or top-dose-only effect; inactive = no such curve, though single readings can be large or run the other way. Some of the results follow.

Biological target: Galactocerebrosidase (Homo sapiens) (UniProt P54803)
UniProt P54803, sequence (P54803 whole entry, looked up): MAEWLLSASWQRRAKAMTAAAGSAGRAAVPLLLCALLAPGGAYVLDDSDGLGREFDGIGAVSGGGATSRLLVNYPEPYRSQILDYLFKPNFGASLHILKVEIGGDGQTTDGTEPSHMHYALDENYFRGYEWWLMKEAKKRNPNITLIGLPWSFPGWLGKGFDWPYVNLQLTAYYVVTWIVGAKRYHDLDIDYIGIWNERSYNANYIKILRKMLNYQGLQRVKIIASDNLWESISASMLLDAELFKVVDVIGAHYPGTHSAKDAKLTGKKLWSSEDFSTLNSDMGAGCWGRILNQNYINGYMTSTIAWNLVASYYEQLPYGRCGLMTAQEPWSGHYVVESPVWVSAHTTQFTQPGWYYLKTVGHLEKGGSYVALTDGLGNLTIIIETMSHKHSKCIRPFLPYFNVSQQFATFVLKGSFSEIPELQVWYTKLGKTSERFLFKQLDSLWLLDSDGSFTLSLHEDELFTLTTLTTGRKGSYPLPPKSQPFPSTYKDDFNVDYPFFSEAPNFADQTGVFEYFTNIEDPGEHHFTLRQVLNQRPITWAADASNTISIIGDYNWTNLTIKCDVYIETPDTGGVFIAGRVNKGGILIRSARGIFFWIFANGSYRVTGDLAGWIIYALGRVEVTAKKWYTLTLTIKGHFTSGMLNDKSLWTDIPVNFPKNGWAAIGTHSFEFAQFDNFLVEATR
Assay: A Novel Cell-Based Assay to Identify Small Molecules for B -Galactocerebrosidase; note: 0% is about no effect; nearly all actives have a fitted effect of over 65% in size
Details: 145M-Twi-hGALC-G270D cells (Twitcher mouse brain line with human GALC G270D), HMU-beta-Gal fluorescence, 48 h; series mostly up to 57.5 µM; activation: at the top concentration
In short: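 Live 145M-Twi cells (Twitcher mouse brain-derived, GALC-null) stably expressing human GALC-G270D, with a wild-type GALC line, were compound-treated. Residual GALC activity was then read as fluorescence from 0.1 mM final HMU-β-gal at pH 5.2; higher signal means activation.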

| SMILES | activation |
| --- | --- |
| CCOC(=O)c1[nH]c(C)c(CCC(=O)NCc2ccc(CC)cc2)c1C | inactive: -4.97% |
| CCN(CC)CCNC(=O)c1cc2c(=O)n(C)c3cc(Cl)ccc3c2s1 | inactive: 1.07% |
| CC(C)COc1ccc(C(=O)N2CCN(CCc3ccncc3)CC2)cc1 | inactive: -2.5% |
| O=C1CSC2(C(=O)N(Cc3cccc(F)c3)c3ccccc32)N1c1cccc(C(F)(F)F)c1 (stereo not given) | inactive: -35.8% |
| CCCC(=O)OCc1cnc(C)c2oc(=O)c(C(=O)Nc3cccc(C(F)(F)F)c3)cc12 | inactive: -3.85% |
| COc1ccc(N(Cc2cccs2)C(=O)c2ccc(OC)c(Cl)c2)cc1 | inactive: -24.4% |
| Cc1cccc(N2CCN(C(=O)C3CCN(S(=O)(=O)c4c(C)noc4C)CC3)CC2C)c1 (stereo not given) | inactive: -4.27% |
| COc1ccc(NC(=O)Cn2cc(S(=O)(=O)c3ccccc3)c(=O)c3cc4c(cc32)OCO4)cc1 | inactive: -10.3% |
| CCN1CCc2c(sc(-n3cccc3)c2C(C)NC(=O)Nc2ccc(Br)cc2)C1 (stereo not given) | inactive: -18.1% |
| Cc1ccccc1C(=O)Nc1ccc2nc(N3CCCCC3)cc(C)c2c1 | inactive: -29.9% |
| COc1cccc(N2CCN(C(=O)C3CCN(S(=O)(=O)c4c(C)noc4/C=C/c4ccccc4F)CC3)CC2)c1 | inactive: -10.3% |
| CCCS(=O)(=O)c1c(S(=O)(=O)CCC)c2cc(C(C)(C)C)ccn2c1C(=O)c1ccccc1 | inactive: -2.07% |
| Cc1c(C(=O)Nc2ccccc2)sc2nc(-c3cc4cc(Cl)ccc4oc3=O)[nH]c(=O)c12 | inactive: -16.8% |
| CCC(=O)Nc1ccccc1-c1nc2ccccc2n(CC(=O)Nc2ccccc2OC)c1=O | inactive: -9.03% |
| Cc1cccc(C)c1NC(=O)C(NS(=O)(=O)c1cccs1)c1ccccc1 (stereo not given) | inactive: -9.27% |
| O=C(NCCc1ccc(Cl)cc1)c1ccc(CS(=O)(=O)c2ccc(Cl)cc2)o1 | inactive: -8.12% |
| O=C(Cn1ccn(-c2ccc(F)cc2)c(=O)c1=O)Nc1ccc(F)cc1 | inactive: -9.92% |
| CCN(CC)C(=O)c1sc2c(c1C)c(=O)n(CCc1ccccc1)c(=O)n2Cc1cc(C)ccc1C | inactive: -0.954% |
| COc1cccc(N2CCN(C(=O)c3cc4c(s3)-c3ccccc3OC4)CC2)c1 | inactive: 3.01% |
| CC(C)(C)C(=O)NCC(c1ccc2c(c1)OCO2)N1CCOCC1 (stereo not given) | inactive: -17.1% |
| O=C(CSc1nnc(-c2cccs2)o1)Oc1ccccc1Cl | inactive: -6.2% |
| COc1cc(CNC(=O)c2ccc3c(c2)c(C)c(C)n3Cc2cccc(C)c2)cc(OC)c1OC | inactive: -12.5% |
| O=C(Cn1ncc2c3ccccc3n(Cc3cccc(Cl)c3)c2c1=O)Nc1ccc(F)cc1F | inactive: -11.9% |
| Cc1c(Cl)cccc1NC(=O)CCOc1ccccc1 | inactive: -22.2% |

| SMILES | activation |
| --- | --- |
| Cc1cccn2c(=O)c3cc(C#N)c(=O)n(-c4nnc(SCc5ccc(Cl)cc5)s4)c3nc12 | inactive: -14.1% |
| CCOc1ccc(Cn2c(=O)sc3ccccc32)cc1 | inactive: -12.3% |
| CCOC(=O)c1nc(NCc2ccc(Cl)cc2)c2c(C)noc2n1 | inactive: -0.803% |
| CCC(=O)C1=C(c2ccc(C)cc2)N(C(=O)CC)n2c(nnc2C2CCCCC2)S1 | inactive: -18.3% |
| Cc1cccc(C)c1NC(=O)CS(=O)(=O)c1nc(-c2ccc(Cl)cc2)cn1-c1ccccc1 | inactive: -54.7% |
| CC(=O)N1CCc2cc(S(=O)(=O)NC(CC(C)C)C(=O)Nc3cc(C)cc(C)c3)ccc21 (stereo not given) | inactive: -13% |
| CC1=C(C(=O)Nc2ccccc2C)C(c2ccccn2)n2ncnc2N1 (stereo not given) | inactive: -18.4% |
| CC(=O)N1CCc2c(sc3c2c(=O)n(CCc2ccccc2)c(=O)n3Cc2ccccc2C)C1 | inactive: -5.69% |
| CCSc1ncc(Cl)c(C(=O)Nc2sc3c(c2C(=O)NCCCOC)CCCC3)n1 | inactive: -11.9% |
| Cc1ccc(C)c(-c2ccc(=O)n(Cc3c(F)cccc3Cl)n2)c1 | inactive: -22.2% |
| COc1ccc(NC(=O)CSc2nc(-c3cccc(C)c3)[nH]c2-c2ccccc2)cc1OC | inactive: -12.1% |
| Cc1cc(C)c2c(c1)c(C)cc1nnc(SCc3ccccc3C#N)n12 | inactive: -6.78% |
| CC1=C(C(=O)Nc2ccc(Cl)cc2)C(c2ccccc2)n2ncc(C(=O)Nc3ccccc3)c2N1 (stereo not given) | inactive: -44% |
| Cc1ccc(NC(=O)CN2C(=O)COc3ccc(S(=O)(=O)NC4CCCC4)cc32)cc1N(C)C | inactive: -11.8% |
| Cc1ccc(C)c(Cn2c(=O)c3c(nc4n3CCN4c3ccccc3)n(C)c2=O)c1 | inactive: -7.36% |
| CC(C)c1noc(-c2ccccc2OCC(=O)Nc2cccc([N+](=O)[O-])c2)n1 | inactive: -5.09% |
| CCN(CC)S(=O)(=O)c1ccc2c(c1)c(=O)c(C(=O)N1CCN(c3cc(Cl)ccc3C)CC1)cn2C | inactive: -21.2% |
| CC(C)Sc1ncc(Cl)c(C(=O)Nc2ccc(S(=O)(=O)N3CCCCC3)cc2)n1 | inactive: -8.18% |
| Cc1ccc(CN(C(=O)COc2cc(C)c(Cl)c(C)c2)c2ccccn2)o1 | inactive: -21.9% |
| COc1ccc(-c2nc3scc(CCNS(=O)(=O)c4ccc5c(c4)OCCO5)n3n2)cc1 | inactive: -9.08% |
| CC(=O)N1CCc2cc(Br)cc(S(=O)(=O)CCC(=O)N3CCN(c4ccccc4Cl)CC3)c21 | inactive: -17.6% |
| CCOc1ccc(-c2c(C)nn3c(C)c(C(=O)Nc4cc(C)cc(C)c4)cnc23)cc1OCC | inactive: -10.7% |
| Cc1ccc(-c2cc3nc(-c4ccccc4)cc(C(F)(F)F)n3n2)cc1 | inactive: -5.82% |
| COc1cc(C2CC(=O)Oc3c2c(=O)[nH]c2ccccc32)cc(OC)c1OC (stereo not given) | inactive: -3.18% |

| SMILES | activation |
| --- | --- |
| Cc1ccc(NC(=O)C2CCN(S(=O)(=O)c3cccc4nonc34)CC2)cc1C | inactive: -2.52% |
| O=C(Oc1ccccc1F)c1nc(SCc2ccc(F)cc2)ncc1Cl | inactive: -15% |
| CCOc1ccc(Nc2c(S(=O)(=O)c3ccccc3)cnc3ccc(F)cc23)cc1 | inactive: -17.7% |
| Cc1cc(C)c2sc(N3CCN(C(=O)c4ccc(N(C)C)cc4)CC3)nc2c1 | inactive: -30% |
| COc1ccccc1N1CCN(S(=O)(=O)c2c(C)nc3sccn3c2=O)CC1 | inactive: -1.24% |
| Cc1ccc(S(=O)(=O)c2c(O)cc(C)c(NS(=O)(=O)c3ccc(Cl)cc3)c2C)cc1 | inactive: -13.4% |
| CC(C)c1nn2c(=O)cc(COC(=O)c3ccco3)nc2s1 | inactive: -1.95% |
| CCCCCCCCCCCCCCCCCC(=O)OCC(O)CO (stereo not given) | inactive: -14.7% |
| Cc1nn2c(C)c(C(=O)NC(C)(C)C)cnc2c1-c1ccc(F)cc1 | inactive: -11.7% |
| O=C(CSc1nc(=O)[nH]c2c1CCCC2)NCc1ccccc1 | inactive: -9.94% |
| COc1ccc(N2C(=O)CSC23C(=O)N(CC(=O)NCCc2ccccc2)c2ccccc23)cc1 (stereo not given) | inactive: -21.9% |
| COc1ccccc1C(=O)Nc1ccc(C(=O)OCc2cc(=O)n3nc(C4CC4)sc3n2)cc1 | inactive: -20% |
| CCCCNC(=O)c1cc2n(n1)CCCN(Cc1ccc(C)cc1)C2=O | inactive: 6.96% |
| CCOc1ccc(C(=O)Nc2ccc3oc(-c4ccc5ccccc5c4)nc3c2)cc1 | inactive: -4.5% |
| COc1ccc(NC(=O)Cn2c(=O)n(Cc3ccccc3)c(=O)c3sc4ccccc4c32)cc1 | inactive: -11% |
| CCc1ccc(Cn2c(CNS(=O)(=O)c3ccc(C)c(C)c3)nc3cccnc32)cc1 | inactive: 2.6% |
| Cc1ccc(N2CC(NC(=O)c3cc4ccccc4o3)CC2=O)cc1 (stereo not given) | inactive: 0.0361% |
| CCc1nc2nc(C)cc(Nc3cc(C)ccc3C)n2n1 | inactive: -12.2% |
| CCOC(=O)c1ccc(NC(=O)Cn2nc(C)c3nn(-c4ccc(Cl)cc4)c(C)c3c2=O)cc1 | inactive: -7.66% |
| CCOC(=O)c1c(NC(=O)C(C)Sc2cn(CCNC(=O)c3ccc(OCC)cc3)c3ccccc23)sc2c1CCC2 (stereo not given) | inactive: -8.16% |
| Cc1cccc(N2CCN(C(=O)c3cnn(-c4ccccc4)c3C3CCN(C(=O)OC(C)(C)C)CC3)CC2)c1C | inactive: 3.58% |
| CCOC(=O)c1c(S(=O)(=O)N2CCC(C(=O)NCc3ccccc3Cl)CC2)c(C)n(C)c1C | inactive: -15.1% |
| COc1ccc(N2CC(NC(=O)C(c3ccccc3)c3ccccc3)CC2=O)cc1 (stereo not given) | inactive: 8.41% |
| COc1cccc(CNC(=O)c2ccc3c(c2)sc2nc(-c4cccc(OC)c4)cn23)c1 | inactive: -15.1% |

| SMILES | activation |
| --- | --- |
| COCCn1ccc2c(OCC(=O)Nc3cccc(C(F)(F)F)c3)cccc2c1=O | inactive: -12.1% |
| Cc1nc2nc[nH]n2c(=O)c1NS(=O)(=O)c1ccc(Br)cc1 | inactive: 3.64% |
| CC(c1cc2ccccc2s1)N(O)C(N)=O (stereo not given) | inactive: -10.4% |
| Clc1ccc(CSc2nncn3c2cc2occc23)cc1 | inactive: -6.78% |
| Cc1ccc(Nc2ncnc3c2nc2n3CCCC2)cc1F | inactive: -1.53% |
| CC1=C(c2ccc(Cl)cc2)S(=O)(=O)N=C1N1CCN(c2cc(C)ccc2C)CC1 | inactive: -27.4% |
| COc1ccc2sc(N(Cc3cccnc3)C(=O)CCc3ccccc3)nc2c1 | inactive: 5.85% |
| Cc1cc2[nH]c(=O)c(=O)[nH]c2cc1S(=O)(=O)N1CCN(c2ccccc2F)CC1 | inactive: -9.41% |
| Cc1cccc(N(C)S(=O)(=O)c2ccc3c(c2)NC(=O)CC(=O)N3)c1 | inactive: -11.6% |
| COc1ccc(CNC(=O)C(=O)NCC(c2cccnc2)N2CCN(c3ccccc3)CC2)cc1 (stereo not given) | inactive: -8.55% |
| Cc1cc(C)cc(-n2c(SCC(=O)Nc3ccc4c(c3)OCO4)nc3c([nH]c4ccccc43)c2=O)c1 | inactive: 2.89% |
| COc1cccc(Cn2c(=O)n(Cc3ccccc3)c(=O)c3c2c2cc(OC)ccc2n3C)c1 | inactive: -0.869% |
| CCCN1CCCc2cc(CN(CCCN3CCOCC3)C(=O)Nc3ccc(Cl)c(Cl)c3)ccc21 | inactive: -10.7% |
| CCc1ccc(NC(=O)CNC(=O)Cn2c(C)cc3ccccc3c2=O)cc1 | inactive: -11% |
| Clc1ccc(-c2cn3cc(Cc4ccccc4)sc3n2)cc1 | inactive: -0.102% |
| CCOc1ccc(CCNC(=O)c2ccc(CSCc3ccccc3C)o2)cc1OCC | inactive: -6.43% |
| O=C(CSc1nc(=O)n(Cc2ccncc2)c2c1CCC2)Nc1cccc(F)c1 | inactive: -14.9% |
| CC[C@@]1(O)C(=O)OCc2c1cc1n(c2=O)Cc2c-1nc1ccccc1c2/C=N/OC(C)(C)C | inactive: -16.9% |
| COC(=O)c1c(NC(=O)c2ccc(C(C)(C)C)cc2)sc2c1CCC(C)C2 (stereo not given) | inactive: -6.83% |
| CCN(C(=O)Cn1nc(Cc2ccncc2)c2ccccc2c1=O)c1ccc(OC)cc1 | inactive: -10.7% |
| CCOC(=O)c1c(NC(=O)COc2ccccc2)sc(C(C)=O)c1C | inactive: -15.4% |
| COc1cc(C2CC(=O)c3c([nH]c(C(=O)OC4CCCC4)c3C)C2)cc(OC)c1OC (stereo not given) | inactive: -18.2% |
| CC1(C)CC(=O)c2cc(-c3nc(-c4ccc(F)cc4)cs3)c(=O)[nH]c2C1 | inactive: -7.25% |
